This is an account of results in publication PMC4336329 (PLoS ONE, 2015).

Out of some 310,000 compounds screened, about 14,000 (4.5%) showed an effect of 50% or more. Effects have a minus sign here. This is one part of the list.
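Note: peak tail current of the secondary pulse compared with the same well before compound.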

Chain of human ether-à-go-go-related gene (hERG) potassium channel (Q12809 whole entry, looked up): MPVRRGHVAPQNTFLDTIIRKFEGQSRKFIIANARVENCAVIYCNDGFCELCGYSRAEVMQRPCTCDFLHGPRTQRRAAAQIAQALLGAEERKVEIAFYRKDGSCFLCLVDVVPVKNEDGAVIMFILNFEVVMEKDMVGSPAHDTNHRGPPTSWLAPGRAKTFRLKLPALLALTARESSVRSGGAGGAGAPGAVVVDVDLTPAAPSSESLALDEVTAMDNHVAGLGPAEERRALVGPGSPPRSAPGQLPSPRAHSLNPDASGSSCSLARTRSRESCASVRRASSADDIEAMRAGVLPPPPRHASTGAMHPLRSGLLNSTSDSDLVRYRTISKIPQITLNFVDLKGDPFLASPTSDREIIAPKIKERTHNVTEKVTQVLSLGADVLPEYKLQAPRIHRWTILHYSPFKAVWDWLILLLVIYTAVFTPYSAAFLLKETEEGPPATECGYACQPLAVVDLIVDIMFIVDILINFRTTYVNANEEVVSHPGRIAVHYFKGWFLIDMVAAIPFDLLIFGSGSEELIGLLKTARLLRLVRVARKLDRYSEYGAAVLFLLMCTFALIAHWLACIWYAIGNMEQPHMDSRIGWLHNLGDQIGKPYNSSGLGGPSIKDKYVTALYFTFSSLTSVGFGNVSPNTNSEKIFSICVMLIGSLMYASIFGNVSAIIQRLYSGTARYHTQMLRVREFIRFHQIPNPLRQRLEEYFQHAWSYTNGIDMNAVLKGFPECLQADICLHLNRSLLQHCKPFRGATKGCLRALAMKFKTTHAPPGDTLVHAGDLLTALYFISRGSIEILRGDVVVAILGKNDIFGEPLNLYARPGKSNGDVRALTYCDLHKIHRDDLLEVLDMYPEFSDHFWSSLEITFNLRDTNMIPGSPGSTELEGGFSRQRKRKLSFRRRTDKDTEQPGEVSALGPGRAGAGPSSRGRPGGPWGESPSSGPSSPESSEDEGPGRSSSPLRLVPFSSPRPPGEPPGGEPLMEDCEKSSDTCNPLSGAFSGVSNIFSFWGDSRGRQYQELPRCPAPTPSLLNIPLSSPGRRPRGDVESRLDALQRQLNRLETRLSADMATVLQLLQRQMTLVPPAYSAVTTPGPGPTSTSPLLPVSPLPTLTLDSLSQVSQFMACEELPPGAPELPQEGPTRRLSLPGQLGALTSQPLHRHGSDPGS

This test has as its target human ether-à-go-go-related gene (hERG) potassium channel (human, UniProt Q12809). In words: primary screen, population patch clamp on CHO cells stably expressing hERG.
Turning to `CC1=C(C(=O)OCCc2ccccc2)C(c2ccsc2)NC(=O)N1C` (centres unmarked), the “hERG current change (%, negative = inhibition) at 10uM” value is -10.9%.
To `CCCCOC(=O)CSCC(=O)Nc1cc(C)on1` belongs 5.48%; to `CC(C)(C)NC(=O)C(=O)NNC(=O)c1cccc([N+](=O)[O-])c1`, 9.73%; to `Cc1ccc(N(CC(=O)NCCc2ccccc2)C(=O)CCC(=O)Nc2cc(C)ccn2)cc1`, 16.5%.
On to `CC(=NCc1cccnc1)c1c(O)n(C2CCCCC2)c(=O)[nH]c1=O`, for which the “hERG current change (%, negative = inhibition) at 10uM” value was -24.7%.
For the compound `O=C(O)/C=C/C(=O)N1CCN(C(c2ccccc2)c2ccccc2)CC1`, the “hERG current change (%, negative = inhibition) at 10uM” value came out at 40.8%.
To `CCOc1ccc(S(=O)(=O)Nc2nc3ccc(OC)cc3s2)cc1` belongs 11.8%.
To `CN1CCN(c2ncc3c(n2)CC(c2ccccc2F)CC3=O)CC1` (centres unmarked) belongs -4.43%; to `CCc1cc2c(NC3CCCC3)ncnc2s1.Cl`, -11.4%.
For `NS(=O)(=O)c1ccc(NC(=S)Nc2ccc(OCc3ccccc3)cc2)cc1` the value was 24.2%; for `C=CCN1C(=O)c2cccc3c(N4CCCCC4)ccc(c23)C1=O`, -13.1%.
Regarding `CN(C)c1cccc(C(=O)NN2C(=O)NC3(CCCCC3)C2=O)c1`, the “hERG current change (%, negative = inhibition) at 10uM” value came out at 2.18%.
For `O=C(C1CCCN(S(=O)(=O)c2cccc3nonc23)C1)N1CCC(Cc2ccccc2)CC1` (centres unmarked) the value was -30.9%; for `O=C(COC(=O)COc1cccc(F)c1)NCCC1=CCCCC1`, 17%.
On to `O=C(c1cccc(Cl)c1)N1CCn2c1nc1ccccc12`, for which the “hERG current change (%, negative = inhibition) at 10uM” value is on record as -15.7%.
For `O=C(Cn1sc2ccccc2c1=O)NC12CC3CC(CC(C3)C1)C2`, the “hERG current change (%, negative = inhibition) at 10uM” value is 20.6%.
For `CC(=O)NCc1nc2ccccc2n1Cc1ccccc1F` the value was 1.1%; for `O=C(NC1=C(Nc2ccc(Cl)cc2)C(=O)c2ccccc2C1=O)c1ccccc1`, -20.3%; for `Cc1ccc2[nH]c(C(=O)N3CCOCC3)cc2c1`, 18.7%.
For `CC1CN(Cc2nnc(-c3ccccc3)o2)CC(C)O1.Cl` (centres unmarked) the value was 4.76%; for `O=C(Nc1ccc2nc(-c3ccco3)[nH]c2c1)c1cccs1`, -14.5%; for `CCOc1ccc(CCNC(=O)COC(=O)CCc2cc(OC)c(OC)c(OC)c2)cc1OCC`, -9.01%.
Consider `CCN1C(=O)C2C(c3cccc(F)c3)NC(CC)(C(=O)OC)C2C1=O` (centres unmarked), for which the “hERG current change (%, negative = inhibition) at 10uM” value stood at 22.8%.
Regarding `COCCN(C(=O)c1csnn1)C(C(=O)NC1CCCCC1)c1cccs1` (centres unmarked), the “hERG current change (%, negative = inhibition) at 10uM” value is -19.5%.
In the case of `COc1ccc(CN(C)C(=O)c2ccccc2Sc2ccccc2C#N)cc1OC`, the “hERG current change (%, negative = inhibition) at 10uM” value is recorded as -13.9%.
To `CCc1nc2ccccc2n1Cc1cc(=O)n2cc(C)ccc2n1` belongs -6.17%; to `O=C(CN1CCCCC1)N/N=C/c1ccccc1OCc1ccccc1`, -30.2%.
For `CCN(Cc1ccccc1)C(=O)C1CCN(CC2CC=CCC2)CC1.O=C(O)C(=O)O` (centres unmarked) the value was -46.9%; for `CC(=O)Nc1ccc(S(=O)(=O)NNC(=S)NCc2ccco2)cc1`, 12.1%; for `COC(=O)C1C(O)=C(C=Nc2ccc3ccccc3c2)C(=O)CC1(C)C` (centres unmarked), -8.23%.
For `O=C(O)CC(C(=O)N(c1ccccc1)c1ccccc1)N1CCOCC1` (centres unmarked) the value was 3.94%.
For `COc1cc2c(c(OC)c1OC)-c1c(cc3c(c1OC)OCO3)C1OC2[C@@H](C)[C@H]1C` (some centres unmarked), the “hERG current change (%, negative = inhibition) at 10uM” value is given as -4.76%.
For `Cc1ccc(/C=N/N2CCN(c3ccc(Cl)cc3)CC2)o1` the value was 6.28%; for `CCOC(=O)CC(=O)CSc1nc(-c2cccnc2)ccc1C#N`, 17.5%.
For `COCCNC(=O)Nc1ccc2nc(-c3ccco3)c(-c3ccco3)nc2c1` the value was 4.08%; for `O=C(CSc1nnc(CNC(=O)c2c(F)cccc2Cl)o1)NCc1ccc(F)cc1`, 7.58%; for `COc1ccccc1CNC(=O)Cn1cc(Br)ccc1=O`, 6.88%.
Turning to `CCOc1ccc(NC(=O)N2CCC(NC(=O)C(Cc3ccc(OC)c(OC)c3)NC(C)=O)CC2)cc1` (centres unmarked), the “hERG current change (%, negative = inhibition) at 10uM” value stood at 8.15%.
With `CCn1nc(C)c(/C=N/NC(=O)CSc2ccccn2)c1C`, the “hERG current change (%, negative = inhibition) at 10uM” value is recorded as 12.7%.
Consider `O=C(CCc1nnc(CCCc2ccccc2)o1)NCCc1ccco1`, for which the “hERG current change (%, negative = inhibition) at 10uM” value is -10.5%.
To `Cc1ccc(-n2c(C)nc3c(cnn3-c3ccccc3Cl)c2=O)cc1C` belongs 10.6%; to `Cc1cc(C)n2nc(C(=O)N/N=C/c3ccc(Cl)cc3)nc2n1`, -37.2%.
To `COc1ccc(S(=O)(=O)Nc2cc3c4c(oc3c3ccccc23)CC(C)(C)CC4=O)cc1` belongs -3.05%; to `Cc1nnc(NC(=O)C2CC(=O)N(c3ccccc3)C2)s1` (centres unmarked), 3.67%.
Regarding `CCOc1ccccc1NC(=O)c1sc2ncn(CC(=O)N3CCOCC3)c(=O)c2c1C`, the “hERG current change (%, negative = inhibition) at 10uM” value is listed as -3.36%.
Take `CC(C)Cc1nnc(NC(=O)CN2C(=O)c3ccccc3C2=O)s1`: the “hERG current change (%, negative = inhibition) at 10uM” value came to 26.9%.
For `CC1C(=O)Nc2ccc(S(=O)(=O)N3CCN(c4cccc(C(F)(F)F)c4)CC3)cc2NC1=O` (centres unmarked) the value was 5.06%; for `CC1=NN(/C(=N\c2nnc(C)s2)Nc2ccc(C(C)(C)C)cc2)[C@H](c2ccc(C)cc2)S1`, 5.12%.
To `COc1ccc(-c2n[nH]c3c2C(c2ccc(OC)c(OC)c2)N(c2ccccc2)C3=O)cc1` (centres unmarked) belongs 3.73%.
On to `Cc1ccccc1NC(=O)c1sc(NC(=O)C2CC2)nc1C`, for which the “hERG current change (%, negative = inhibition) at 10uM” value is 11.2%.
To `CCCN1C(=O)c2ccc(C(=O)Nc3ccccc3C(=O)O)cc2C1=O` belongs 29.2%; to `CCOC(=O)C1=C(C)N(C)C(=O)NC1c1c(C)nn(-c2ccccc2)c1C` (centres unmarked), 4.67%; to `O=C(C(=O)c1cccnc1)c1cccnc1`, 19.9%.
For `Cc1ccc(SCCC(=O)NCc2ccccn2)cc1`, the “hERG current change (%, negative = inhibition) at 10uM” value was -14.6%.
For `O=c1c(-c2ccnn2-c2cccc(Cl)c2)cnc2n1CCS2` the value was 1.04%.
For `NS(=O)(=O)c1cc(C(=O)OCC(=O)c2ccc3c(c2)OCCO3)ccc1Cl` the value was -0.0168%.
